Screen size: about 43,000 compounds; about 200 (0.47%) were called active. Inconclusive results (about 12%) are left out. Calls follow the shape of the dose curve; as a rule, active = well fitted cell-killing curve with a large enough effect; inconclusive = small, poorly fitted or top-dose-only effect, or effect the other way; inactive = flat fitted curve, though single readings scatter. The list shows a part of the results.
experiment: Cell viability qHTS assay in S16 Pmp22-F2sN cells; conditions: S16 Pmp22-F2sN Schwann cells (luciferase reporters placed in the Pmp22 gene) viability, CellTiter-Glo, 24 h; series mostly up to 57.5 µM; activity change, negative = cytotoxicity: at the top concentration; also: nearly all actives have a fitted effect of over 65% in size
Procedure, shortened: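 Seed 500-1,000 S16 Pmp22-F2sN cells per well in phenol-red-free DMEM with 10% heat-inactivated FBS; pin-add 23 nL compound; incubate 24 h at 37C; add CellTiter-Glo, wait 15 min protected from light; read luminescence.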
% is scaled to controls: 0 for no effect and ±100 for the full control effect.

SMILES	activity change, negative = cytotoxicity
N#Cc1c(-c2ccccc2)cc(-c2ccccc2)nc1SCC(O)CS(=O)(=O)Cc1ccccc1 (centres undefined)	inactive: -4.37%
CCOc1ccc(NC(=O)c2cnn(-c3ccccc3)c2-n2cccc2)cc1	inactive: 7.42%
CCN(CC)C(=O)CSc1nc2c(c(=O)n(C)c(=O)n2C)n1Cc1ccccc1	inactive: 13.6%
CNC(=O)C1CCN(C(=O)N2CC(C)Oc3ccc(Cl)cc32)CC1 (centres undefined)	inactive: 2.37%
O=C(CCS(=O)(=O)c1cc(Br)cc2c1N(C(=O)C1CC1)CC2)N1CCN(c2ccccc2)CC1	inactive: -8.68%
O=C(c1ccc2c(c1)N(Cc1cccc(Cl)c1)C(=O)c1ccccc1S2(=O)=O)N1CCCC1	inactive: -9.51%
Cc1ccccc1Cn1nnc2c(=O)[nH]c(C3CCCN(C(=O)c4ccc(C(C)(C)C)cc4)C3)nc21 (centres undefined)	inactive: -15.9%
CCOC(=O)C1CCCN(C(=O)c2ccccc2NC(=O)c2nsc3ccccc23)C1 (centres undefined)	inactive: -0.952%
Cc1nnc2c3ccccc3nc(N3CCN(c4ccccc4)CC3)n12	inactive: 0.843%
Cc1cc(C)cc(N2C(=O)CSC23C(=O)N(CC(=O)NC2CCCCC2)c2ccccc23)c1 (centres undefined)	inactive: -11.1%
COc1ccc(C(=O)Nc2cccc(OCc3cc(=O)n4c5c(sc4n3)CCCC5)c2)cc1OC	inactive: 0.241%
CCOC(=O)c1ccccc1NC(=O)N1CCCn2nc(C)cc21	inactive: 2.13%
CC(=O)N1CCCc2cc(S(=O)(=O)N3CCC(C(=O)N(C)C4CCCCC4)CC3)ccc21	inactive: -17.9%
Cc1ccccc1C(=O)Nc1nnc(S(=O)(=O)N2CCc3ccccc32)s1	inactive: -2.14%
CCc1ccc(NC(=O)Cn2c(=O)n(Cc3ccc(C)cc3)c(=O)c3cccnc32)cc1	inactive: -0.37%
COc1ccc(NC(=O)c2sc3nc4n(c(=O)c3c2C)CCC4)c(OC)c1	inactive: 13.1%
CCCCOc1ccccc1NC(=O)CC1Sc2ccccc2NC1=O (centres undefined)	inactive: -2.16%
COc1ccccc1Cc1nc2ccccc2nc1SCC(=O)N1CCCCC1	inactive: -2.63%
Cc1noc(/C=C/c2ccccc2F)c1S(=O)(=O)N1CCC(C(=O)NCc2ccco2)CC1	inactive: -12.4%
CCOC(=O)N1CCN(c2ncc3c(n2)CC(c2ccc(OC)c(OC)c2)CC3=O)CC1 (centres undefined)	inactive: -2.02%
COc1ccc(Br)cc1CNC(=O)C1CCN(c2nnc(-n3cccc3CNc3ccc(C)cc3)s2)CC1	inactive: -1.38%
CCn1cc(C(=O)N(C)c2cc(C)ccc2C)c2cc(OC)c(OC)cc2c1=O	inactive: 9.36%
O=S(=O)(Nc1nc2n(n1)C(c1ccc(F)cc1)C=C(c1ccc(Cl)cc1)N2)c1ccccc1 (centres undefined)	inactive: 7.95%
CSc1nn(CC(=O)Nc2ccc(C)cc2C)c(N)c1S(=O)(=O)c1ccc(Cl)cc1	inactive: 17.4%

SMILES	activity change, negative = cytotoxicity
Cc1ccc(NS(=O)(=O)c2ccc3nc(-c4ccccc4)[nH]c3c2)cc1Cl	inactive: -29.8%
CCOc1ccccc1NC(=O)C1CCCN(S(=O)(=O)c2cccs2)C1 (centres undefined)	inactive: 13.5%
COc1cc2c(C(=O)N3CCN(c4ccc(F)cc4)CC3)cn(CC(C)C)c(=O)c2cc1OC	inactive: -17.1%
COc1cc(NC(=O)CSc2cc(=O)n(C)c3ccccc23)cc(OC)c1OC	inactive: 0.986%
CC(NCc1ccc2c(c1)n(C)c(=O)n2C)c1ccccc1 (centres undefined)	inactive: 1.57%
COc1ccc(N2CCN(C(=O)c3ccc4c(c3)CCN4S(=O)(=O)c3ccccc3)CC2)cc1	inactive: -5.36%
CCC12CN3CC(CC)(CN(C1)C3c1c[nH]c3ccccc13)C2=O (centres undefined)	inactive: -1.82%
Cc1ccc(-c2cn3c(n2)sc2cc(C(=O)NC4CCCCCC4)ccc23)cc1	inactive: 2.25%
Cc1cc(C)n2nc(CNC(=O)c3cccc(N(C)C)c3)nc2n1	inactive: -5.24%
CCOc1ccc(CCNC(=O)CCn2c(=O)c3cccn3c3ccc(F)cc32)cc1OCC	inactive: 9.03%
COc1ccc(-c2nc3ccccc3o2)cc1NC(=O)c1cccc2c(Cl)cccc12	inactive: 10.9%
COc1ccc(NC(=O)CC2C(=O)N(c3ccc(OC)cc3)C(=O)N2Cc2ccc(OC)c(OC)c2)cc1 (centres undefined)	inactive: -0.477%
CCOc1ccc(N2CC(NC(=O)Cc3cccs3)CC2=O)cc1 (centres undefined)	inactive: -0.764%
CN(Cc1ccccc1)c1ccc2cc(S(=O)(=O)N3CCCCC3)ccc2n1	inactive: 12.4%
Cc1ccc(C)c(CSc2cn(CC(=O)N3CCCC3)c3ccccc23)c1	inactive: -17.6%
COc1ccc2cc(-c3nc(-c4ccc(N(C)C)cc4)no3)c(=O)oc2c1	inactive: 2.05%
CCOc1ccc(NC(=O)CCc2c(C)nc3c4c(C)cc(C)nc4nn3c2C)cc1	inactive: -5.82%
Cc1nn(C)c2c1c(-c1ccccc1)cc(=O)n2Cc1ccc(F)cc1Cl	inactive: 2.82%
CCN(CC)C(=O)Cn1c(=O)n(-c2ccc(Cl)cc2)c(=O)c2c3c(sc21)CCCCC3	inactive: 18.4%
O=C(CSc1n[nH]c(-c2ccccc2Cl)n1)NCCCc1ccccc1	inactive: 4.91%
CCOc1ccc(NC(=O)CSC2=Nc3ccccc3C3=NC(CC(=O)NCc4cccs4)C(=O)N23)cc1 (centres undefined)	inactive: -1.81%
COc1cc(-c2cc(OC)c3c(C)oc(C)c3c(=O)c2)ccc1OC(=O)c1ccc(C)cc1	inactive: -6.48%
CC(=O)c1cccc(NC(=O)C2CCN(c3ncnc4c3nc3n4CCCCC3)CC2)c1	inactive: -23%
CC1=C(c2ccc(C)c(C)c2)S(=O)(=O)N=C1N1CCC(C(=O)NC(C)c2ccccc2)CC1 (centres undefined)	inactive: -0.391%

SMILES	activity change, negative = cytotoxicity
CCc1ccc2oc(C(=O)N(Cc3ccc(N(C)C)cc3)Cc3ccco3)c(C)c2c1	inactive: -2.66%
CC(CCc1ccccc1)NC(=O)Cn1c(=O)nc(-c2ccccc2)c2cc(Cl)ccc21 (centres undefined)	inactive: 4.85%
O=C(NCc1ccc(F)cc1Cl)c1cc(=O)[nH]c2ccc(S(=O)(=O)N3CCCCC3)cc12	inactive: 1.23%
COc1ccc(-c2nc3scc(CCNS(=O)(=O)c4ccc5c(c4)OCCO5)n3n2)cc1OC	inactive: -7.06%
COc1ccc(CNC(=O)Cc2c(C(=O)O)c(C)cn2C)cc1	inactive: 3.62%
O=C(Cn1cc(C(=O)C2CCCCC2)c2ccccc21)Nc1ccccc1Cl	inactive: -22.5%
Cc1c(-c2ccccc2)c(=O)oc2ccc(OC(=O)N3CCOCC3)cc12	inactive: -17.7%
CCOc1ccc(C(=O)Nc2c(C(=O)Nc3ccccc3OC)oc3ccccc23)cc1OCC	inactive: -2.18%
Cc1cc(C)cc(OCCSc2nc3ccc(NC(=O)c4cccs4)cc3s2)c1	inactive: -0.106%
COc1ccc(C2c3[nH]c4ccccc4c3CCN2C(=O)CCC2CCCC2)cc1 (centres undefined)	inactive: -4.34%
COc1ccc(CNC(=O)Cc2c(C)c3cc4c(C)coc4cc3oc2=O)cc1OC	inactive: 8.17%
CC(Sc1nccn1C)C(=O)Nc1ccccc1C#N (centres undefined)	inactive: 4.14%
CCN(CC)c1ccc(NC(=O)c2cc(C)nc3c2c(C)nn3-c2ccc(C)cc2)c(C)c1	inactive: 11%
CCOC(=O)c1ccc(NC(=O)c2cnn3c(=O)c4c(n(CC)c23)CCN(Cc2ccc(OC)cc2)C4)cc1	inactive: 0.5%
Cc1cn2c(=O)cc(COC(=O)c3ccc(NC(=O)c4ccc(F)cc4)cc3)nc2s1	inactive: -29.1%
CC1CCN(S(=O)(=O)N2CCC(C(=O)NCc3ccccc3Cl)CC2)CC1	inactive: -5.22%
COC(=O)c1ccc(Nc2ncnc3c2cnn3C)cc1	inactive: 0.956%
COc1ccc(N2CCN(C(=O)CSc3nc(-c4ccc(C(C)C)cc4)no3)CC2)cc1	inactive: -7.79%
O=C(CNC(=O)c1ccccc1)OCc1cc(=O)n2nc(C3CCCCC3)sc2n1	inactive: 11.9%
COc1ccc(-c2nc3scc(CCNS(=O)(=O)c4ccc(Oc5ccccc5)cc4)n3n2)cc1OC	inactive: -3.12%
CCN(CC)C(=O)c1sc2c(c1C)c(=O)n(-c1ccc(C)c(C)c1)c(=O)n2Cc1cc(=O)n2ccccc2n1	inactive: 2.01%
Cc1nc(-c2ccc(S(=O)(=O)Nc3cc(Cl)ccc3C)cc2)co1	inactive: 13.5%
COc1ccc(Cn2cc(S(=O)(=O)c3ccc(C)cc3)c(=O)c3cc(F)ccc32)cc1	inactive: 0.352%
COc1ccc2c(CNCCc3ccc(SC)cc3)c(C(=O)O)n(Cc3ccc(F)cc3)c2c1	inactive: 4.52%

SMILES	activity change, negative = cytotoxicity
COc1ccc2c(c1)c(=O)c(C(=O)c1ccccc1)cn2CC(=O)Nc1ccc2c(c1)OCO2	inactive: 8.39%
COc1ccc(CCNC(=O)c2ccc3c(c2)CCN3S(C)(=O)=O)cc1OC	inactive: 5.67%
NS(=O)(=O)c1ccc(CCNC(=O)C2CCN(c3ncnc4c3nc3n4CCCCC3)CC2)cc1	inactive: -2.3%
Cc1ccc(CNC(=O)CCc2cn(C)c3ccccc23)cc1	inactive: -0.741%
CCC(CC)C(=O)Nc1nnc(S(=O)(=O)N2CCCCCC2)s1	inactive: 7.37%
CCOc1ccc(NC(=O)c2oc3ccccc3c2NC(=O)COc2cccc(OC)c2)cc1	inactive: 4.58%
Cc1cccc(CN2C(=O)c3ccccc3Sc3ccc(C(=O)NCc4ccco4)cc32)c1	inactive: -4.09%
O=c1c2ccccc2nc(/C=C/c2cccc3ccccc23)n1-c1ccc(F)cc1F	inactive: -17.4%
COc1ccccc1CNC(=O)C1CCN(c2nc3ccc(C)cc3[nH]2)CC1	inactive: 6.48%
COc1ccc(Cl)cc1-n1cc(-c2ccccc2)nc1SCC(=O)Nc1ccc(C)cc1	inactive: 5.6%
O=C(NC1CCCC1)c1ccc2c(=O)n(Cc3ccccc3)c(SCc3ccccc3F)nc2c1	inactive: 5.06%
COc1ccc(-c2cc(-c3ccc(C)cc3)nc3c2COc2ccccc2-3)cc1	inactive: 22.2%
CCC(Cn1nnc2ccccc2c1=O)NC(=O)Nc1ccccc1OC (centres undefined)	inactive: -4.13%
Cc1ccc(S(=O)(=O)c2nc(-c3ccc(F)cc3)oc2SCC(=O)NC2CCCCC2)cc1	inactive: 8.89%
CCOc1ccc(CCNC(=O)c2cc3c(-c4ccccc4F)nn(C)c3s2)cc1	inactive: 19.5%
CCn1cc(CNC(=O)c2cc(-c3ccc(C)cc3)nc3ccc(Br)cc23)c(C)n1	inactive: 6.22%
COc1cccc(NC(=O)C2CCC(CNS(=O)(=O)c3ccc4c(c3)CCCC(=O)N4)CC2)c1 (centres undefined)	inactive: -11.1%
Cc1ccccc1-c1nc2scc(CCNC(=O)c3ccco3)n2n1	inactive: -15.6%
COc1cccc(NC(=O)C2CCN(c3ccc(Sc4ccc(C)cc4)nn3)CC2)c1	inactive: 7.26%
CCS(=O)(=O)N1CCc2cc(C(=O)NCc3ccccc3OC)ccc21	inactive: -3.09%
CCOc1ccc(CCNC(=O)C2CCCN(S(=O)(=O)N(C)c3ccc(F)cc3)C2)cc1 (centres undefined)	inactive: -5.06%
Cc1sc2ncn(CC(=O)N3CCN(c4ccccc4F)CC3)c(=O)c2c1S(=O)(=O)N1CCC(C)CC1	inactive: -0.54%

Source: PubChem BioAssay AID1508642 (National Center for Advancing Translational Sciences (NCATS), 2021)
